# Assay results: US5898069A, “Phosphate assay” (Medical Research Council, priority 1993, dated 1999)
# B1: CPM-PBP: A197C mutant of E. coli phosphate binding protein labelled on the cysteine with CPM (conjugate, UniProt P0AG82 26-346, looked up, variant A197C)
# Phosphate-binding protein PstS: EASLTGAGATFPAPVYAKWADTYQKETGNKVNYQGIGSSGGVKQIIANTVDFGASDAPLSDEKLAQEGLFQFPTVIGGVVLAVNIPGLKSGELVLDGKTLGDIYLGKIKKWDDEAIAKLNPGLKLPSQNIAVVRRADGSGTSFVFTSYLAKVNEEWKNNVGTGSTVKWPIGLGGKGNDGIAAFVQRLPGAIGYVEYCYAKQNNLAYTKLISADGKPVSPTEENFANAAKGADWSKTFAQDLTNQKGEDAWPITSTTFILIHKDQKKPEQGTEVLKFFDWAYKTGAKQANDLDYASLPDSVVEQVRAAWKTNIKDSSGKPLY
# modifications: CPM fluorophore label on cysteine
# Legend:
# [1] = Pi dependent fluorescence change of labelled PBP in various solution compositions; assay type: binding; details: 100 μM Pi added, 7 μM CPM-PBP
# Description: 3.2 μM MDCC-PBP was in 10 mM PIPES, 1 mM MgCl2 (pH 7.0) at 22° C. Pi was added to 50 μM;
# Because very small levels of Pi contamination can affect the observed change on adding Pi and because of variability in the protein activity, the maximum percent increase of fluorescence varies from 400-500%0 Although PBP is very specific for Pi (Luecke & Quiocho, 1990), it was to be used as a probe in the presence of other phosphate species, such as esters or purine nucleotides and so it was important to know at what levels these might interfere with Pi measurements. Several Pi analogues were also tested (Table 2) and only arsenate and vanadate produced significant increases. For a titration of arsenate in a solution of MDCC-PBP, the fluorescence change was used to obtain a dissociation constant of 3 μM. In all cases except arsenate, when subsequently Pi was added, the full fluorescent change was observed. The Pi dependent fluorescence change was measured for a variety of conditions at a single concentration of Pi (Table 2). The change is only slightly affected by pH (7-8) or ionic strength.
# The solutions contained 2 μM MDCCPBP (except for [b] 10 μM and [c]
# 3.2 μM) in 20 mM PIPES (pH 7.0) except where indicated. The solutions
# in B had 100 μM Pi added to produce the indicated fluorescence
# change. […]
# [2] = Fluorescence titration of Pi to labelled PBP to obtain the dissociation constant; assay type: binding
# Description: The solution at 20° C. contained […] MDCC-PBP, 1 mM MgCl2, 10 mM PIPES pH 7.0. Aliquots of Pi were added and the fluorescence emission was measured at 465 nm with excitation at 425 nm. The data was corrected for the small amount of dilution;
# The solution at 25° C. in 10 mM PIPES, pH 7.0, 1 mM MgCl2 contained 0.28 μM MDCC-PBP. Aliquots of Pi were added and the fluorescence emission was measured as in FIG. 3.
# The fluorescence titrations of Pi with CPM-PBP (and MDCC-PBP) were fitted to the following equations using Enzfitter software:
# Ratio of fluorescence at a given [Pi ] to that at zero Pi =(Q[Ep ]+[E]-[Ep ])/[E] where
# [E ]P=([P]+[E]+K-√(([P]+[E]+K)^2 -4[P][E]))/2
# [E]=concentration of CPM-PBP
# Q=ratio of fluorescence for CPM-PBP.Pi to that for the unliganded CPM-PBP
# The product was characterized in several ways. […] The dissociation constant was determined by titrating Pi at low [MDCC-PBP] and measuring fluorescence (FIG. 4). […] Because Pi binding is very tight, these dissociation constants can be considered only approximate: the fluorescence titration could not be done at sufficiently low concentrations to obtain accurate values of Kd.
# [3] = Stopped-flow kinetics of Pi binding to labelled PBP and its release; details: pH 70, 20° C., low ionic strength
# Description: A. 0.1 μM MDCC-PBP (mixing chamber concentration) in 10 mM PIPES, pH 7.0 was rapidly mixed at 21° C. with different concentrations of Pi in this buffer in a stopped flow apparatus, while fluorescence emission was monitored using a 455 nm cut-off filter, with excitation at 436 nm using a mercury lamp. The curve show a time course with 0.25 μM Pi. […] The best-fit single exponential (65.3 s^-1) is shown by the dashed line, almost completely hidden by the experimental curve.
# B. The release kinetics were measured by rapidly mixing 0.125 μM Pi, 0.25 μM MDCC-PBP with 10 μM wild-type PBP (mixing chamber concentrations) at 22° C. Other conditions were as above The best-fit single exponential (21.4 s^-1) is shown by the dashed line, almost completely hidden by the experimental curve;
# In order to use the probe to measure Pi release from ATPases and GTPases in real time it was important to know the kinetics of Pi interaction with the labeled protein. Because of the fast rates only part of the exponential is observed: a significant proportion of the reaction occurs during the dead time of the instrument (i.e. the time taken for the solution to flow between mixing and the observation chamber).
# The dissociation rate of the MDCC-PBP.Pi complex was measured directly in the stopped flow apparatus by rapid mixing of this complex with excess wild-type PBP. […]
molecule,measurement,setting,value
B1,% fluorescence increase,"[1]; 10 mM Tris-HCl (pH 8.0), 50 mM NaCl",63%
same,% fluorescence increase,"[1]; 10 mM Tris-HCl (pH 8.0), 100 mM NaCl",45%
same,% fluorescence increase,"[1]; 10 mM Tris-HCl (pH 8.0), 500 mM NaCl",32%
same,% fluorescence increase,[1]; 20 mM PIPES (pH 7.0),37%
same,% fluorescence increase,[1]; 20 mM Tris-HCl (pH 7.0),44%
same,% fluorescence increase,[1]; 20 mM Tris-HCl (pH 7.5),60%
same,% fluorescence increase,[1]; 20 mM Tris-HCl (pH 8.0),69%
same,"enhancement (fluorescence, titration)",[2]; pH 7.0 (10 mM PIPES),63%
same,"enhancement (fluorescence, titration)",[2]; pH 8.0 (10 mM Tris HCl),105%
same,Pi binding rate constant,[3],3.6e+07 M⁻¹ s⁻¹
